From US11365205B2 (Aurigene Discovery Technologies Limited, priority 2018, dated 2022) come the findings set out here.

What is called pIC50 is the negative decadic logarithm of the IC50, by convention in mol/L.

pIC50: −log10 of the molar value.

For the experiment, the target named is PRMT5/MEP50 Complex (Homo sapiens (Human), UniProt O14744). Kind of experiment: PRMT5 inhibition based on TR-FRET assay. The experiment is classed as biochemical. As to conditions: 32 nM PRMT5:MEP50, 50 nM Histone-H4 peptide, 1 μM SAM. The source says: PRMT5 Inhibition Based on TR-FRET Assay:
Protein arginine methyltransferase 5 (PRMT5) is a type II arginine methyltransferase that catalyze mono- and symmetric demethylation on arginine residues of histone or non-histone proteins in presence of S-adenosylmethionine (AdoMet or SAM) a cofactor responsible for donating the methyl group. PRMT5 is reported to be overexpressed in several human cancers. To identify compounds that inhibit the PRMT5 and decrease its activity, a TR-FRET based assay has been established. Time-resolved fluorescence resonance energy transfer (TR-FRET) HTS assays are homogeneous proximity assays where the interaction of two dye-labeled binding partners is detected by the energy transfer between a donor and an acceptor dye and the subsequent light emission by the acceptor dye. PRMT5 catalyzes Histone H4 peptide which is biotin tagged to the Lysine amino acid at carboxyl end, in presence of S-adenosyl-1-methionine (SAM) to methylate the peptide. The antibody specific to mono methylated H4 peptide (H4R3) with Ig conjugate binds to the methylated peptide, indirectly binding to the Europium lanthanide. […]
The compound dilutions were prepared as 7.5% DMSO stock solutions in assay buffer. […] The plates were then read on Victor-3 with Excitation at 340 nm and Emissions collected at 615 and 665 nm in TR-FRET protocol. […]
A general note: TR-FRET usually uses a lanthanide donor and a delayed reading to cut background.

Chain of UniProt O14744 (O14744 whole entry): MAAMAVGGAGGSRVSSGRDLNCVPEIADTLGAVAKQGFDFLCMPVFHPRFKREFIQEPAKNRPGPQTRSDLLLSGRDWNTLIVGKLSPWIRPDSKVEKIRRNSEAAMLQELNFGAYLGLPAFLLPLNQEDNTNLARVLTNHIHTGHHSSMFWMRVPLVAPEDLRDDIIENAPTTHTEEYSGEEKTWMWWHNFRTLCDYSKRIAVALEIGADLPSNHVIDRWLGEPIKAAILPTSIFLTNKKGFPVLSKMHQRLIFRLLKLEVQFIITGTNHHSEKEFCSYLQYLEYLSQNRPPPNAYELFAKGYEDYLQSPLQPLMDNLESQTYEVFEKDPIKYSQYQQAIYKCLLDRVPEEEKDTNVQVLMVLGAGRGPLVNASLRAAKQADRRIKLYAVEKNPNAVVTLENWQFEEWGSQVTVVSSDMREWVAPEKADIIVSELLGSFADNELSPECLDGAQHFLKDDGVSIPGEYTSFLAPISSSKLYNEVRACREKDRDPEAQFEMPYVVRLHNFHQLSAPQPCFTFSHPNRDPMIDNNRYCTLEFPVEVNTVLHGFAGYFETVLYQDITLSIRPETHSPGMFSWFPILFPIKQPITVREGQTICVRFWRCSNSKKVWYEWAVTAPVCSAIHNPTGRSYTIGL
Chain of UniProt O14744 (Q9BQA1 whole entry partner): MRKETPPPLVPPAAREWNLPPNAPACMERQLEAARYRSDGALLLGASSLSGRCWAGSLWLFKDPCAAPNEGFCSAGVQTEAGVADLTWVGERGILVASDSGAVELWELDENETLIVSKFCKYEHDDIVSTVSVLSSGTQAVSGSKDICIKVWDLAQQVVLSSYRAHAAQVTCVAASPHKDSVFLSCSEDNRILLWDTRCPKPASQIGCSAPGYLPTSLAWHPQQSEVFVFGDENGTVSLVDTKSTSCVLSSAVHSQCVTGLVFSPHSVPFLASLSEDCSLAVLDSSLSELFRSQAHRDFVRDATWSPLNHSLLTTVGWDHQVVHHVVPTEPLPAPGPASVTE

For `Cn1cnc2ccc(CN3CCN(CC(O)CN4CCc5ccccc5C4)C3=O)cc21` (centres unmarked) [Example 1, 1-(3-(3,4-Dihydroisoquinolin-2(1H)-yl)-2-hydroxypropyl)-3-((1-methyl-1H-benzo[d]imidazol-6-yl)methyl)imidazolidin-2-one], the pIC50 is 6.37.
With `CCc1ccc(CN2CCN(CC(O)CN3CCc4ccccc4C3)C2=O)cn1` (centres unmarked) [Example 27, 1-(3-(3,4-dihydroisoquinolin-2(1H)-yl)-2-hydroxypropyl)-3-((6-ethylpyridin-3-yl)methyl)imidazolidin-2-one], the negative-log IC50 (pIC50) was 6.66.
